# Measurements reported in ChEMBL document CHEMBL4888484, “Replenishing the malaria drug discovery pipeline: Screening and hit evaluation of the MMV Hit Generation Library 1 (HGL1) against asexual blood stage Plasmodium falciparum ,using a nano luciferase reporter read-out” (2022).
# The campaign covered roughly 150,000 compounds. About 540 (0.36%) showed an effect of 50% or more. The list shows a part of the results.
# Test system: Plasmodium falciparum
# Experiment: Primary screen in NF54 nanoGlo assay, in single point, at 2uM, 72h; a lower Z score goes with more inhibition
# Assay type: functional, Erythrocyte
# Conditions: timepoint 72 hour
Compound,% Inhibition [%],Z score
Cc1ccc2c(c1)OC[C@H](CC(=O)N1CCCCC1)N2Cc1ccc(F)cc1,-2,0.34
CCOC(=O)c1nnsc1NC(=O)N1CCCCC1,-1,0.15
COc1cc(NCCc2nc(N)cc(O)n2)ncn1,-3,0.54
CC(C)=CCC[C@@]1(C)CCC(=O)N(CCc2c[nH]c(=O)[nH]c2=O)C1,-13,2.59
Cc1ccc2c(c1)c1c(n2C[C@H](O)CN2CCCCC2)C(=O)CCC1,9,-1.46
C[C@H]1CN(c2nc(-c3ccccc3)ns2)CCCO1,0,-0.05
O=C(CCc1ccc2c(c1)OCO2)N1CCN(C(=O)c2ccccc2)CC1,-18,2.03
COC(=O)C12CCC(C(=O)NC[C@H]3CCCOC3)(CC1)CC2,33,-4.72
CC[C@@H](C(=O)NCCn1nc(C)nc1C)n1cccn1,-5,0.82
Cc1cc2c(cc1S(=O)(=O)N(C)Cc1nnc[nH]1)OCO2,1,-0.15
O=C(CN1CCNC(=O)[C@@H]1c1ccc(OC(F)(F)F)cc1)NC1CC1,2,-0.29
c1cc2c(cc1OCc1noc3c1CCCC3)OCCO2,-16,2.14
C=CCN(CC=C)S(=O)(=O)c1cc(F)ccc1OC,-8,1.67
Cc1[nH]ccc(=O)c1Cc1c(Cl)cccc1Cl,40,-5.13
O=C(NCc1cccs1)C1CCN(c2cnc(N3CCCC3)nc2)CC1,2,-0.39
Cc1c(C(=O)N2CCN(C(=O)c3ccco3)CC2)cccc1-n1nnc2cccnc21,0,-0.02
COc1ccc2nc(CN(C)C3(CO)CCOCC3)sc2c1,-15,2.02
COc1ccccc1NC(=O)[C@@H](C)C1CCN(C(=O)Nc2ccccc2)CC1,-5,0.9
CCc1nnc(-c2cccn2CC(=O)Nc2ccc(OC)cc2)o1,-18,1.86
O=C1C[C@H](c2noc(C3CCC3)n2)CN1c1ccccc1,-17,2.05
Cc1cnc(C)c(NCC(C)(C)N2CCN(C)CC2)n1,-8,1.14
O=C(Nc1cc(C(F)(F)F)ccc1Cl)[C@H]1CCCN(c2cc(C3CC3)ncn2)C1,-4,0.82

Compound,% Inhibition [%],Z score
COCC(=O)N(C1CCOCC1)[C@H]1CCCN(C(=O)c2ccc(OC)cc2C)C1,31,-3.51
O=C(c1cccc(O)c1OC(F)(F)F)N1CCC=C(F)C1,0,0.01
O=C(c1ccc(Cl)c(Cl)c1O)N1CCCN2CCC[C@H]2C1,-2,0.36
O=S(=O)(N1CCOCC1)N1CCC[C@H]1c1ccncc1,0,0.01
O=C(c1ccc(-c2ccco2)nc1)c1ccco1,-22,3.25
C[C@H](NS(=O)(=O)c1ccc(F)cc1)C(=O)NC1CCN(CC(=O)Nc2ccccc2)CC1,0,0.02
Cc1noc(C(C)NC(c2ccccc2)C2CCC2)n1 (configuration not stated),-9,1.07
Cc1nnc(N2CC(C)OC(C)C2)s1 (configuration not stated),-18,2.36
C[C@H](NC(N)=O)C(=O)NCCCc1nc2c(s1)CCCC2,-10,1.89
CN1CCO[C@@H](CNC(=O)c2cn[nH]c2)C1,-19,2.17
CCc1noc(CNC(=O)C[C@H]2CN(C(C)C)CCO2)n1,-7,0.87
Cc1nn(-c2nccs2)cc1Br,0,-0.08
COc1cc2c(cc1CN1CC=C(C)CC1)OCCCO2,-12,2.27
O=C(O)[C@H]1CCCN(C(=O)c2nn(-c3cccc(C(F)(F)F)c3)c3c2CCC3)C1,-10,0.9
C[C@@H](NC(=O)c1cn(C)nc1C1CC1)c1ncc[nH]1,-1,0.13
Cc1ccc2cc(-c3nccn3CCN(C)C)c(N3CCOCC3)nc2c1,11,-1.46
CCN(C)c1nc(N2CCN(c3ccc(C)cc3)CC2)nc2c1CN(C(=O)c1ccccc1OC)CC2,8,-1.04
CCOC(=O)c1ncn2c1CN(C(=O)OC(C)(C)C)CC2,-10,1.33
O=C1NCCCCCCN(C(=O)Nc2ccccc2F)[C@H]2CCCC[C@@H]12,-4,0.52
CCn1ncc(NC(=O)c2c(F)cccc2F)c(N2CCOCC2)c1=O,2,-0.29
CC(=O)OC(C)(C)C(=O)N1CC[C@H](Oc2cccc(C)n2)C1,-10,1.99
Cc1noc(C)c1CC(=O)NC1CCCCCCC1,-12,2.06

Compound,% Inhibition [%],Z score
Cc1cc(C)n(C(=O)Cc2nnc(-c3cccs3)o2)n1,-7,0.85
O=C1N(CC2CC2)CCC[C@@]12CCN(Cc1nc3c(s1)CCCC3)C2,-5,0.81
Cc1cc(C(=O)N[C@H]2C[C@H](c3nnc(CO)n3C3CC3)C2)ccc1F,-18,2.27
Brc1cccc(C2(c3noc(-c4cnccn4)n3)CCOCC2)c1,35,-3.97
Cc1ccc(S(=O)(=O)N2CCC(C(=O)C3C(=O)CCCC3=O)CC2)cc1,0,-0.04
CCC1C(C)CCN1CC(=O)N1CCOC(C)C1 (configuration not stated),10,-1.17
CN1CCN(c2ccc(-c3cccc4cccnc34)nn2)CC1,-9,1.21
O=C(NCc1ccccc1)[C@]1(F)CCN(S(=O)(=O)Cc2cccc(F)c2)C1,-3,0.57
O=C(NCc1cccnc1-c1ccccc1)c1ccccc1F,5,-0.62
NC(=O)C1(NC(=O)c2ccnc(OCC(F)F)c2)CCOCC1,10,-0.91
Nc1nnc(CNC(=O)[C@H]2C[C@@H]2c2ccccc2)s1,-7,1.38
CCN1C(=O)NC(=O)C12CCN(Cc1cnc(N3CCOCC3)nc1)CC2,-9,1.76
CNC1CC[C@H]2[C@@H]3CC[C@H]4C[C@@H](O)CC[C@]4(C)[C@H]3CC[C@]12C (some centres not stated),1,-0.23
CCc1nc(O)c(C(=O)N2CCN(C)c3ncccc32)cc1C,3,-0.41
CCCc1cc(N2CC[C@]3(OC)CC[C@@H](OCC4CC4)C[C@H]23)nc(C)n1,-15,1.36
C=CCC[C@@H](CN(C)Cc1cccnc1)Oc1ccc(N(C)C)nn1,-15,1.32
Cc1cc(-c2ccc(CN3CCCCC3)cn2)[nH]n1,1,-0.13
Cc1nc(CC(=O)N2C[C@H](C(=O)O)[C@@H](c3ccc(F)cc3)C2)cs1,3,-0.73
CC(C)c1nn(C)cc1-c1noc(C2(O)CCCC2)n1,-12,1.88
CCC(=O)NS(=O)(=O)c1c(C)cccc1Cl,-9,0.94
Cc1nn(C)c(Cl)c1[C@H]1CC(=O)Nc2c1cnn2-c1ccccc1,-5,0.93
CCNS(=O)(=O)CCNC(=O)N1CCCc2cccc(Cl)c21,-8,0.7

Compound,% Inhibition [%],Z score
Cc1c(Cl)ccc2c1NC(=O)[C@]21N[C@@H](CCC(N)=O)[C@H]2C(=O)N(c3cccc(Cl)c3)C(=O)[C@H]21,6,-0.75
Cc1cc(C)nc(NC(=O)c2cc(C)on2)n1,-15,1.69
c1ccc2[nH]c(C3CCN(c4nn5cnnc5c5ccccc45)CC3)nc2c1,-15,2.33
COc1ccc(C(=O)N2CCN(C3CC(OCc4ccccc4)C3)CC2)cc1 (configuration not stated),-10,1.23
CC(=O)Nc1nc(CN(C(C)C)C2CC2)cs1,-7,0.72
CC1(N2CCOCC2)CCN(C(=O)c2ccnn2C(F)F)CC1,-2,0.31
O=C(NCc1ccccc1CN1CCC[C@@H]1CO)Nc1cccc2[nH]ccc12,6,-1.15
CCCCC(C)C(=O)N1CCCCC1Cn1ccnn1 (configuration not stated),-8,0.83
CC(=O)NCCC(=O)N1CCC([C@H](Cc2ccccc2C)N(C)C(=O)Cn2cccn2)CC1,-12,1.56
Cc1nonc1CN1CC[C@H](O)CC(C)(C)C1,-11,1.51
CC(C)CC[C@H](C)NC(=O)CS(=O)(=O)Cc1ccc(F)cc1Cl,6,-0.84
CCc1ccc([C@@H]2CNCCN2C(=O)c2cn(C)cn2)cc1,-4,0.54
CC(C)(C)c1ccc(C(=O)N[C@H]2C[C@@H]3CC[C@H]2C3)cc1,41,-4.59
C=CCOC(=O)N1CCN(C(=O)OCC=C)CC1,4,-0.53
CC(=O)N1CCCC[C@H]1c1nc(-c2ccc3[nH]c(C)c(C)c3c2)no1,-11,2
O=C(CCC1CCCC1)Nc1nc(-c2ccccc2)cs1,12,-1.76
O=C(Nc1ccc(CC(=O)N2CCc3ccccc32)cc1)[C@H]1CCOC1,-6,0.66
CCOc1ccc2nc3n(c2c1)CCCN3,32,-3.63
Cn1cc(CC(=O)NCc2ccc(F)cc2)c2cccnc21,-9,1.06
COCCN(CC(=O)N1N=C(c2cccn2C)C[C@H]1c1ccc(OC)cc1)C(=O)NC(C)(C)C,-4,0.43
